From PubChem BioAssay AID1963576 (National Center for Advancing Translational Sciences (NCATS), 2024)
In all, about 46,000 compounds went through this assay and about 60 (0.1%) were called active. Another 3% or so got no clear call; they are omitted. Calls come from the whole dose curve; as a rule, active = well fitted inhibition curve with a large enough effect; inconclusive = small, poorly fitted or top-dose-only effect; inactive = no such curve, though single readings can be large or run the other way. The list shows a part of the results.

Assay: Primary qHTS assay for Inhibitors of ovarian cancer metastasis using an organotypic tumor microenvironment (TME) model.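 For activity change, negative = inhibition: plate controls were DMSO wells for no effect and tomatine positive control wells for full effect.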 Note: nearly all actives have a fitted effect of over 65% in size.
Details: SKOV3ip1-GFP adhesion/invasion on 3D omental model, fluorescence; series mostly up to 45.8 µM; activity change, negative = inhibition: at the top concentration
How it was run: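 Primary human omental fibroblast/mesothelial 3D culture pre-formed 48 h. SKOV3ip1-GFP cells added with compounds (0.36-46 umol/L), incubated 2 h RT/16 h 37 C, fixed; GFP cells quantified at 488/509 nm.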

SMILES | activity change, negative = inhibition | outcome
Cc1ccc(NC(=O)c2sc3ncnc(N(C)C4CCCCC4)c3c2C)cc1 | inactive: 8.81% | –
O=c1c2c3c(sc2n(Cc2ccc(F)cc2Cl)c(=O)n1-c1ccc(Cl)cc1)CCC3 | inactive: -2.41% | –
Cc1ccc(C)c(N2CCN(c3nc4ccccc4c(=O)n3-c3ccccc3)CC2)c1 | – | inactive
CC(=O)c1ccc(N2CCN(C(=O)C3CCN(S(=O)(=O)c4c(C)noc4/C=C/c4ccccc4F)CC3)CC2)cc1 | inactive: -6.76% | –
Cc1cc(C)c(S(=O)(=O)NCCc2csc3nc(-c4ccc(Cl)cc4)nn23)c(C)c1 | – | inactive
CCOc1ccc2c(c1)c(=O)c(S(=O)(=O)c1ccc(Cl)cc1)cn2Cc1ccccc1C | – | inactive
COc1ccc(NC(=O)c2ccc(NC(=O)CCS(=O)(=O)c3cccs3)cc2)cc1 | inactive: -19.9% | –
COc1cccc(Nc2nc3ccc(C(=O)c4ccccc4)cc3n3c(C)nnc23)c1 | inactive: -13.4% | –
CC(=O)Nc1ccc(S(=O)(=O)NCCS(=O)(=O)N2CCN(c3ccccc3F)CC2)cc1 | – | inactive
CCOc1ccc2cc(-c3nnc(Nc4ccc(C)cc4)s3)c(=O)oc2c1 | inactive: 8.22% | –
Cc1ccccc1OCc1ccc(-c2nc(C#N)c(N3CCC(C(N)=O)CC3)o2)o1 | inactive: 14.3% | –
Cc1ccccc1-c1nc(SCC(=O)N(C)c2ccccc2)c2c(=O)n(C)c(=O)n(C)c2n1 | inactive: 3.31% | –
COc1ccc(CCC(=O)NCCc2csc(-c3cccc(C)c3)n2)cc1 | inactive: 22.4% | –
Cc1ccc(C)c(CN2C(=O)c3ccccc3S(=O)c3ccc(C(=O)NCCC4=CCCCC4)cc32)c1 (stereo not given) | – | inactive
Cc1ccccc1NS(=O)(=O)c1nnc(NC(=O)c2ccco2)s1 | inactive: 25.7% | –
CCOC(=O)c1c(S(=O)(=O)NCC(=O)N(C)c2ccc(C)cc2)c(C)n(C)c1C | inactive: 1.11% | –
O=C(Nc1ccc(Cl)c(-c2nc3cc(Cl)ccc3o2)c1)c1cc2ccccc2o1 | inactive: -2.87% | –
COc1cc(NC(=O)CC(c2cccs2)N2Cc3ccccc3C2=O)cc(OC)c1OC (stereo not given) | inactive: -3.94% | –
CCOC(=O)c1cc(C)n(CC2CCC(C(=O)Nc3cc(OC)cc(OC)c3)CC2)c1C (stereo not given) | inactive: -12.2% | –
CCCNC(=O)c1cnc2c(-c3ccc(OCC)c(OCC)c3)c(C)nn2c1-c1ccccc1 | – | inactive
CC(C)Oc1ccc(C(=O)Nc2nonc2-c2ccc(OC(C)C)cc2)cc1 | inactive: -7.43% | –
COC(=O)CCN(C(=O)C1CCN(S(=O)(=O)c2c(C)noc2/C=C/c2ccccc2F)CC1)c1ccccc1 | inactive: -9.73% | –
CCc1cccc(NC(=O)Cn2nc3c4cc(F)ccc4n(Cc4cccc(C)c4)cc-3c2=O)c1 | inactive: -9.02% | –
CCc1ccccc1N1C(=O)N(CC(=O)c2ccc(OC)cc2)c2ccccc2S1(=O)=O | inactive: 11% | –
Clc1cccc(CSc2nnc(C3CCNCC3)o2)c1 | inactive: -23.7% | –
